Results reported in patent US20230235040A1.

Target: mixture of hu-IL-36α, hu-IL-36β and hu-IL-36γ
Assay: cell-based or functional assay

IC50, IL-8 secretion by HEKa cells stimulated by a cytokine mixture: 1.16 nM
B1: mAb2.10/mAb6_2.7 multispecific common light chain antibody (IgG, knobs-into-holes, N297G) (bispecific antibody)
heavy 1: ELQLQESGPGLVKPSETLSLTCTVSGGSISDSSYYWGWIRQPPGKGLEWIGSIYYTGETYYAPSLKSRVTISVDTSKNQFSLKLSSVTAADTAVYYCARVRYGVGVPRHFDPWGQGTLVTVSSASTKGPSVFPLAPSSKSTSGGTAALGCLVKDYFPEPVTVSWNSGALTSGVHTFPAVLQSSGLYSLSSVVTVPSSSLGTQTYICNVNHKPSNTKVDKKV[left out - human IgG1 Fc with changes]
heavy 2: ELQLQESGPGLVKPSETLSLTCTVSGGSITASNTYWGWIRQPPGKGLEWIGSIDYTGSTYYNPSLKSRVTISVDTSKNQFSLKLSSVTAADTAVYYCATGKYYETYLGFDVWGQGTLVTVSS[left out - human IgG1 constant region with N297G T366W (EU numbers)]
light: ESVLTQPPSVSGAPGQRVTISCTGSSSNIGAHYDVHWYQQLPGTAPKLLIYGNDNRPSGVPDRFSGSKSGTSASLAITGLQAEDEADYYCQSYDYSLSGYVFGGGTKLTVLGQPKAAPSVTLFPPSSEELQANKATLVCLISDFYPGAVTVAWKADSSPVKAGVETTTPSKQSNNKYAASSYLSLTPEQWKSHKSYSCQVTHEGSTVEKTVAPTECS
